Source: PubChem BioAssay AID1768 (National Center for Advancing Translational Sciences (NCATS), 2009)
Values joined by “and” are separate entries in the source; they are usually repeats but may differ in a detail not shown here. Equal values may be shown once. The whole screen tested about 270,000 compounds, of which about 620 (0.23%) were called active. Inconclusive results, whose numbers are uncertain, are shown with a selection of clear calls. Calls come from the whole dose curve; as a rule, active = well fitted inhibition curve with a large enough effect in the polarisation, with a control signal flat (not every such curve was filed as active); inconclusive = small, poorly fitted or top-dose-only effect, or effect the other way, or a change in a side signal; inactive = no such curve, though single readings can be large or run the other way; the % refers to the polarisation. A potency beside an inconclusive call is a rough fit, not a confirmed value. A note “side channel” means that the fit belongs to a control or component signal, not to the main read-out.
Potency is the fitted concentration of half-maximal effect; tags give direction and shape of the fitted curve or compound fluorescence and quenching.

The compounds below were run against Menin (Homo sapiens) (UniProt O00255) (assay: qHTS Assay for Inhibitors Targeting the Menin-MLL Interaction in MLL Related Leukemias: Competition With Texas Red Labeled MLL-derived Mutant Peptide). Conditions: fluorescence polarization; series mostly up to 61.6 µM.
UniProt O00255, sequence (O00255 whole entry, looked up): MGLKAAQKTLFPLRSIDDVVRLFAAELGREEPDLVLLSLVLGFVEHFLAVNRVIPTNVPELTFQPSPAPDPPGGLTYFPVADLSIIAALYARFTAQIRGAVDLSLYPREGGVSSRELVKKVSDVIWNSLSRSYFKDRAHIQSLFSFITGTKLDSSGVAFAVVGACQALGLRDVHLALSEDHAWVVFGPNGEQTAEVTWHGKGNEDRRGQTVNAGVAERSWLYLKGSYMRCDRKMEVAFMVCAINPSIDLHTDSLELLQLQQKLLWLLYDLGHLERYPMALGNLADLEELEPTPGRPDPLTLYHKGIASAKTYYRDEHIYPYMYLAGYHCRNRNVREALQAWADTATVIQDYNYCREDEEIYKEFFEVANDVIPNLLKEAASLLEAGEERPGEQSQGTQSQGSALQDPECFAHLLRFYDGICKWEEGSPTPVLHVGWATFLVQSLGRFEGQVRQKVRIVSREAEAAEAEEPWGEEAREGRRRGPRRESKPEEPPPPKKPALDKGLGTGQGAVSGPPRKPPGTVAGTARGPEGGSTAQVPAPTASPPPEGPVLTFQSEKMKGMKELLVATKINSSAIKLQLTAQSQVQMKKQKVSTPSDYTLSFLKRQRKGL
`NS(=O)(=O)c1ccc2c(c1)oc(=O)c1cc(S(N)(=O)=O)ccc12` was tested, and the Potency was “inactive”.
For `Nc1nc(N)n(-c2ccccc2)c(=Nc2ccccc2)n1`, the Potency was inconclusive: 44.7 µM [quencher, side channel, partial curve].
For `O=C(Nc1ccc2c(c1)OCO2)Nc1ccc2c(c1)OCO2`, the Potency was inconclusive: 28.2 µM [quencher, side channel, partial curve].
With `Cc1ccccc1-c1nc(CN2CCCC2c2ccc(F)cc2)c(C)o1` (configuration not stated) the Potency was inconclusive: 12.6 µM [fluorescent, side channel, partial curve].
`O=C(CCC1CCCCC1)Nc1ccc(S(=O)(=O)Nc2nccs2)cc1` was tested, and the Potency was inconclusive: 28.2 µM [quencher, side channel, single point].
In the case of `COn1c(SCc2cccc(Cl)c2)nc2ccccc2c1=O`, the Potency was inconclusive: 8.91 µM [inhibitor, partial curve].
For `Nc1cc(N)cc(C(=O)Nc2ccc3c(c2)C(=O)NC3=O)c1`, the Potency was “inactive”.
For `O=S1(=O)N=C(N=Nc2c(O)[nH]c3ccccc23)c2ccccc21`, the Potency was inconclusive: 28.2 µM [quencher, side channel, single point].
For `CC1CCCN(CCCN2C(=O)C3C(C(=O)Nc4cccc(Cl)c4)C4C=CC3(O4)C2C(=O)NC2CCCCC2)C1` (configuration not stated), the Potency was inconclusive: 39.8 µM [inhibitor, single point].
`O=C1c2ccccc2C(=O)N1OCc1c(F)cccc1Cl` was tested, and the Potency was inconclusive: 28.2 µM [fluorescent, side channel, single point].
For `O=C(CSc1ccc([N+](=O)[O-])cc1)Nc1cccc(S(=O)(=O)Nc2ccccc2F)c1`, the Potency was inconclusive: 14.1 µM [quencher, partial curve].
For `O=C(N/N=C/c1cccnc1)c1ccccc1`, the Potency was inconclusive: 39.8 µM [inhibitor, single point].
For `COc1ccccc1/C=C/C(=O)NC(=S)Nc1ccccn1`, the Potency was inconclusive: 31.6 µM [quencher, side channel, single point].
In the case of `CC(C)c1ccc(NC(=S)NNC(=O)c2cccs2)cc1`, the Potency was inconclusive: 20 µM [quencher, side channel, partial curve].
In the case of `COc1ccc2nc(SCC(=O)O)nc(C)c2c1`, the Potency was inconclusive: 35.5 µM [inhibitor, single point].
With `COc1cccc(C(=O)Nc2ccc(NC(=O)Cc3ccccc3)cc2)c1` the Potency was inconclusive: 39.8 µM [fluorescent, single point].
In the case of `CCN(CC)S(=O)(=O)c1ccc(NC(=O)Cc2cccs2)cc1`, the Potency was inconclusive: 28.2 µM [quencher, side channel, partial curve].
`O=[N+]([O-])c1cc(S(=O)(=O)Nc2cccc(Cl)c2)ccc1N=Nc1c(O)[nH]c2ccccc12` was tested, and the Potency was inconclusive: 7.94 µM [quencher, side channel, partial curve].
`O=S(=O)(Nc1nc2ccccc2nc1Nc1ccc2c(c1)OCO2)c1ccc(F)cc1` was tested, and the Potency was inconclusive: 7.08 µM [quencher, side channel, partial curve].
`COc1ccc(N2CCN(C3=CC(=O)N(c4cccc(Cl)c4)C3=O)CC2)cc1` was tested, and the Potency was inconclusive: 31.6 µM [quencher, side channel, single point].
In the case of `CN(C)S(=O)(=O)c1ccc(NC(=O)C2CC(=O)N(Cc3ccccc3)C2)cc1` (configuration not stated), the Potency was inconclusive: 35.5 µM [quencher, side channel, single point].
With `CCOc1ccc(-c2nc(C#N)c(NCc3ccc4c(c3)OCO4)o2)cc1` the Potency was “inactive”.
In the case of `COC(=O)c1cc2c(ccn2-c2ccc(F)cc2)n1CC(=O)OC(C)C`, the Potency was “inactive”.
In the case of `CCCCCn1c(CN2CCN(c3cc(Cl)ccc3C)CC2)nc2c1c(=O)[nH]c(=O)n2C`, the Potency was inconclusive: 2.51 µM [fluorescent, side channel, full curve].
With `COc1ccc(C(CC(=O)NC(C)c2ccc(-c3ccccc3)cc2)NC(C)=O)cc1` (configuration not stated) the Potency was inconclusive: 28.2 µM [fluorescent, side channel, single point].
In the case of `CCCCN(C)CCNC(=O)c1cc2c(-c3ccccc3F)nn(C)c2s1`, the Potency was inconclusive: 12.6 µM [inhibitor, partial curve].
For `C(#CC12CC3CC(CC(C3)C1)C2)CN1CCOCC1`, the Potency was “inactive”.
With `Cc1cc(-c2ccc(N=Nc3ccc4c(S(=O)(=O)O)cc(S(=O)(=O)O)c(N)c4c3O)c(C)c2)ccc1N=Nc1ccc2c(S(=O)(=O)O)cc(S(=O)(=O)O)c(N)c2c1O` the Potency was inconclusive: 3.16 µM [fluorescent, side channel, full curve] and inconclusive: 3.98 µM [fluorescent, side channel, full curve].
For `COc1cc(CNc2ccccc2Oc2cc(=O)n(C)c(=O)n2C)cc(OC)c1OC`, the Potency was “inactive”.
In the case of `COc1ccc(-c2cn(CCCOCc3ccccc3)nn2)cc1`, the Potency was inconclusive: 8.91 µM [quencher, side channel, single point].
For `Cc1ccc(N(Cc2cc(=O)[nH]c3ccccc23)C(=O)C(C)C)c(C)c1`, the Potency was inconclusive: 39.8 µM [inhibitor, partial curve, poor fit].
For `CCCc1nnc(NC(=O)C23CC4CC(CC(C4)C2)C3)s1`, the Potency was inconclusive: 10 µM [fluorescent, side channel, partial curve].
With `Cc1ccc(-n2nnnc2SC(C(=O)c2c[nH]c3ccccc23)c2ccccc2)cc1` (configuration not stated) the Potency was inconclusive: 31.6 µM [inhibitor, single point].
In the case of `Cc1cc(/C=C2\SC(=S)NC2=O)c(C)n1C1CC1`, the Potency was inconclusive: 14.1 µM [quencher, side channel, partial curve].
In the case of `NC(=O)NC(=O)CC1S/C(=N/N=C/c2ccccc2)NC1=O` (configuration not stated), the Potency was “inactive”.
In the case of `NC1=NC(=Nc2cccc(Cl)c2)c2ccccc21`, the Potency was inconclusive: 7.08 µM [quencher, side channel, full curve].
In the case of `O=C1CC(c2ccccc2)=NN1c1ccc([N+](=O)[O-])cc1`, the Potency was inconclusive: 2.24 µM [quencher, side channel, full curve].
With `COc1ccc2c(c1OC)C(Cc1ccccc1)N1CCc3cc4c(cc3C1=C2)OCO4` (configuration not stated) the Potency was “inactive”.
In the case of `CCN(CC)c1ccc(-c2nc3cnccn3c2NC2CCCC2)cc1`, the Potency was inconclusive: 4.47 µM [inhibitor, full curve, poor fit].
`CCCNC[C@H](O)COc1ccccc1C(=O)CCc1ccccc1` was tested, and the Potency was inconclusive: 15.8 µM [fluorescent, side channel, partial curve].
`Cc1cc(NC(=O)CCC(=O)N(CC(=O)NCC2CCCO2)c2ccccc2)no1` (configuration not stated) was tested, and the Potency was inconclusive: 22.4 µM [fluorescent, side channel, partial curve].
`COc1ccc2ccccc2c1C(=O)/C=C\c1ccoc1` was tested, and the Potency was inconclusive: 12.6 µM [quencher, side channel, partial curve].
For `CN1CCC(=C2c3ccccc3C=Cc3ccccc32)CC1`, the Potency was inconclusive: 17.8 µM [fluorescent, side channel, partial curve].
In the case of `COc1ccc(Cn2c(SCC#N)nc3ccc(N4CCOCC4)cc3c2=O)cc1`, the Potency was inconclusive: 35.5 µM [quencher, side channel, single point].
With `Cc1ccccc1C(=O)N(CC(=O)Nc1sc(C)c(C)c1C(N)=O)C1CCCC1` the Potency was inconclusive: 3.98 µM [fluorescent, side channel, full curve, poor fit].
With `CC(c1ccccc1C(O)c1ccccc1)N(C)C` (configuration not stated) the Potency was inconclusive: 15.8 µM [inhibitor, partial curve].
In the case of `O=C(CCS(=O)(=O)c1ccc(Br)cc1)NCc1ccc(F)cc1`, the Potency was “inactive”.
With `COCC(=O)N1CCC[C@@]2(CCN(C(c3ccccc3)c3ccccc3)C2)C1` the Potency was inconclusive: 1.41 µM [inhibitor, full curve, poor fit].
`NN(Cc1ccccc1)C(=S)Nc1ccc(Cl)c(Cl)c1` was tested, and the Potency was inconclusive: 28.2 µM [quencher, side channel, single point].
In the case of `CC(C)(C)c1nnc(NS(=O)(=O)c2cc(Cl)ccc2Cl)s1`, the Potency was inconclusive: 31.6 µM [quencher, side channel, single point].
In the case of `COc1cc(/C=C2/C(=O)N(c3ccc(C(=O)O)cc3)N=C2C)cc(OC)c1O`, the Potency was inconclusive: 25.1 µM [quencher, side channel, single point].
`O=C(Nc1ccc(S(=O)(=O)NCc2ccco2)cc1)c1ccc2ccccc2n1` was tested, and the Potency was inconclusive: 28.2 µM [quencher, side channel, single point].
For `COc1cc(/C=C2\SC(=S)N(Nc3ncc(C(F)(F)F)cc3Cl)C2=O)ccc1O`, the Potency was inconclusive: 28.2 µM [fluorescent, side channel, partial curve].
In the case of `CCCCn1c(=O)c(CCC(=O)OCC(=O)NC(=O)NCCC(C)C)nc2ccccc21`, the Potency was inconclusive: 15.8 µM [fluorescent, side channel, partial curve].
With `O=C(Cn1nnc(-c2ccccc2NC(=O)c2ccco2)n1)Nc1ccccc1` the Potency was inconclusive: 25.1 µM [quencher, side channel, partial curve].
`Brc1ccc(C2Nc3cccc4cccc(c34)N2)s1` was tested, and the Potency was inconclusive: 8.91 µM [quencher, side channel, partial curve].
With `CCc1nnc(NS(=O)(=O)c2ccc(NC(=O)COc3ccc(Cl)c(C)c3)cc2)s1` the Potency was inconclusive: 14.1 µM [quencher, side channel, partial curve].
